MIC of clinical N. gonorrhoeae isolates (2015-2017) by agar dilution on GC agar with 1% IsoVitaleX (ranges not stated); higher = less susceptible. No active / inactive call per row; the paper counts benzylpenicillin above 1 and ceftriaxone above 0.125 mg/L as resistant (EUCAST). The method is stated for benzylpenicillin and ceftriaxone and assumed for the other drugs. '<=' is inferred from pile-ups at the end values. Isolates are numbered anew. Some results are limits rather than exact numbers.

Test in all cases: Agar dilution on enriched GC agar; resistance determinants by microarray.
Compound in one test: CC[C@H]1OC(=O)[C@H](C)[C@@H](O[C@H]2C[C@@](C)(OC)[C@@H](O)[C@H](C)O2)[C@H](C)[C@@H](O[C@@H]2O[C@H](C)C[C@H](N(C)C)[C@H]2O)[C@](C)(O)C[C@@H](C)CN(C)[C@H](C)[C@@H](O)[C@]1(C)O [azithromycin]
Compound in the next test: CC1(C)S[C@@H]2[C@H](NC(=O)Cc3ccccc3)C(=O)N2[C@H]1C(=O)O [benzylpenicillin]
Compound in another test: CO/N=C(\C(=O)N[C@@H]1C(=O)N2C(C(=O)O)=C(CSc3nc(=O)c(O)nn3C)CS[C@H]12)c1csc(N)n1 [ceftriaxone]
Compound in a further test: CN(C)[C@@H]1C(O)=C(C(N)=O)C(=O)[C@@]2(O)C(O)=C3C(=O)c4c(O)cccc4[C@@](C)(O)[C@H]3C[C@@H]12 [tetracycline]
Compound in another test: CN[C@@H]1[C@H](O)[C@H](NC)[C@H]2O[C@@]3(O)C(=O)C[C@@H](C)O[C@H]3O[C@@H]2[C@H]1O [spectinomycin]

Consider “Neisseria gonorrhoeae isolate 241 (blaTEM plasmid: no, gyrA: Phe91, Asn95, mtrR promoter: -35delA, parC: Arg87, Glu91, penA: ins345Asp, ponA: Pro421, porB: Thr 120, Asn 121, rpsJ: Met57, tetM plasmid: no)”, for which the MIC – broadly, the lowest concentration found to suppress growth – with azithromycin was 0.25 µg/mL; with benzylpenicillin, 0.5 µg/mL; with ceftriaxone it was 0.008 µg/mL; in the test with tetracycline, 0.5 µg/mL; in the test with spectinomycin, 8 µg/mL.

Regarding “Neisseria gonorrhoeae isolate 502 (blaTEM plasmid: no, gyrA: Phe91, Asn 95, mtrR promoter: -35delA, parC: wild type, penA: ins345Asp, ponA: Pro421, porB: Asn120, Asp121, rpsJ: wild type, tetM plasmid: no)”, the MIC stood at 0.25 µg/mL with azithromycin; 2 µg/mL with benzylpenicillin; 0.015 µg/mL with ceftriaxone; 0.5 µg/mL with tetracycline; 16 µg/mL in the test with spectinomycin.

Take “Neisseria gonorrhoeae isolate 508 (blaTEM plasmid: no, gyrA: Phe91, Gly95, mtrR promoter: -35delA, parC: Arg87, Glu91, penA: ins345Asp, ponA: Pro421, porB: Lys 120, Asn 121, rpsJ: Met57, tetM plasmid: no)”: the MIC with azithromycin is 0.06 µg/mL; with benzylpenicillin, 2 µg/mL; with ceftriaxone, 0.03 µg/mL; with tetracycline, 4 µg/mL; with spectinomycin it was 32 µg/mL.

In the case of “Neisseria gonorrhoeae isolate 304 (blaTEM plasmid: no, gyrA: Thr91, Gly95, mtrR promoter: wild type, parC: wild type, penA: wild type, ponA: wild type, porB: wild type, rpsJ: wild type, tetM plasmid: no)”, the MIC with azithromycin turned out to be 0.12 µg/mL; in the test with benzylpenicillin, 0.25 µg/mL; with ceftriaxone, 0.004 µg/mL; in the test with tetracycline it was 0.25 µg/mL; with spectinomycin it was 32 µg/mL.

Consider “Neisseria gonorrhoeae isolate 51 (blaTEM plasmid: no, gyrA: Phe91, Gly95, mtrR promoter: wild type, parC: Arg87, Glu91, penA: ins345Asp, ponA: Pro421, porB: wild type, rpsJ: Met57, tetM plasmid: no)”, for which the MIC with azithromycin came out at 0.008 µg/mL; with benzylpenicillin it was 0.5 µg/mL; with ceftriaxone it was 0.008 µg/mL; in the test with tetracycline it was 0.5 µg/mL; with spectinomycin it was 32 µg/mL.

As for “Neisseria gonorrhoeae isolate 255 (blaTEM plasmid: no, gyrA: Phe91, Asn 95, mtrR promoter: -35delA, parC: wild type, penA: ins345Asp, ponA: Pro421, porB: Asn120, Asp121, rpsJ: Met57, tetM plasmid: no)”, the MIC with azithromycin was 0.25 µg/mL; with benzylpenicillin it was 1 µg/mL; with ceftriaxone, 0.03 µg/mL; with tetracycline, 0.5 µg/mL; in the test with spectinomycin, 8 µg/mL.

Consider “Neisseria gonorrhoeae isolate 125 (blaTEM plasmid: no, gyrA: wild type, mtrR promoter: -35delA, parC: Arg87, Glu91, penA: ins345Asp, ponA: wild type, porB: wild type, rpsJ: Met57, tetM plasmid: no)”, for which the MIC was 0.12 µg/mL in the test with azithromycin; 0.12 µg/mL in the test with benzylpenicillin; at most 0.002 µg/mL with ceftriaxone; 0.5 µg/mL with tetracycline; 32 µg/mL with spectinomycin.

As for “Neisseria gonorrhoeae isolate 94 (blaTEM plasmid: no, gyrA: wild type, mtrR promoter: -35delA, parC: wild type, penA: ins345Asp, ponA: wild type, porB: wild type, rpsJ: wild type, tetM plasmid: no)”, the minimal inhibitory concentration (MIC) was 0.06 µg/mL in the test with azithromycin; at most 0.015 µg/mL with benzylpenicillin; at most 0.002 µg/mL with ceftriaxone; 0.25 µg/mL in the test with tetracycline; 16 µg/mL with spectinomycin.

“Neisseria gonorrhoeae isolate 262 (blaTEM plasmid: no, gyrA: wild type, mtrR promoter: wild type, parC: wild type, penA: ins345Asp, ponA: wild type, porB: wild type, rpsJ: wild type, tetM plasmid: no)”: the MIC with azithromycin was 0.03 µg/mL; with benzylpenicillin, 0.12 µg/mL; in the test with ceftriaxone it was at most 0.002 µg/mL; with tetracycline it was 0.25 µg/mL; with spectinomycin, 16 µg/mL.

On to “Neisseria gonorrhoeae isolate 57 (blaTEM plasmid: no, gyrA: wild type, mtrR promoter: wild type, parC: wild type, penA: ins345Asp, ponA: Pro421, porB: Asn120, Asp121, rpsJ: Met57, tetM plasmid: no)”, for which the MIC in the test with azithromycin came to 0.25 µg/mL; with benzylpenicillin it was 1 µg/mL; with ceftriaxone, 0.015 µg/mL; in the test with tetracycline, 2 µg/mL; with spectinomycin, 16 µg/mL.

“Neisseria gonorrhoeae isolate 112 (blaTEM plasmid: no, gyrA: wild type, mtrR promoter: wild type, parC: wild type, penA: ins345Asp, ponA: wild type, porB: wild type, rpsJ: wild type, tetM plasmid: no)”: the MIC is 0.06 µg/mL in the test with azithromycin; 0.03 µg/mL with benzylpenicillin; 0.008 µg/mL with ceftriaxone; 0.25 µg/mL in the test with tetracycline; 32 µg/mL with spectinomycin.

Turning to “Neisseria gonorrhoeae isolate 142 (blaTEM plasmid: no, gyrA: Phe91, Asp95, mtrR promoter: -35delA, parC: wild type, penA: ins345Asp, ponA: wild type, porB: Lys120, Asn121, rpsJ: Met57, tetM plasmid: no)”, the MIC in the test with azithromycin is 1 µg/mL; with benzylpenicillin, 0.12 µg/mL; in the test with ceftriaxone, at most 0.002 µg/mL; with tetracycline, 2 µg/mL; in the test with spectinomycin, 32 µg/mL.

In the case of “Neisseria gonorrhoeae isolate 402 (blaTEM plasmid: no, gyrA: Phe91, Asn95, mtrR promoter: -35delA, parC: Ser87, Gly91, penA: ins345Asp, ponA: Pro421, porB: Lys 120, Asn 121, rpsJ: Met57, tetM plasmid: no)”, the MIC with azithromycin is 0.25 µg/mL; with benzylpenicillin it was 0.12 µg/mL; in the test with ceftriaxone, 0.008 µg/mL; with tetracycline it was 0.5 µg/mL; in the test with spectinomycin it was 32 µg/mL.

As to “Neisseria gonorrhoeae isolate 92 (blaTEM plasmid: yes, gyrA: wild type, mtrR promoter: wild type, parC: wild type, penA: ins345Asp, ponA: Pro421, porB: Asp120, Ala121, rpsJ: Met57, tetM plasmid: yes)”, the MIC with azithromycin was 0.06 µg/mL; with benzylpenicillin, 16 µg/mL; in the test with ceftriaxone, 0.008 µg/mL; with tetracycline, 32 µg/mL; with spectinomycin, 16 µg/mL.

Consider “Neisseria gonorrhoeae isolate 444 (blaTEM plasmid: no, gyrA: Phe91, Asn 95, mtrR promoter: -35delA, parC: Ser87, Gly91, penA: ins345Asp, ponA: Pro421, porB: Asn120, Asp121, rpsJ: Met57, tetM plasmid: no)”, for which the MIC was determined as 0.25 µg/mL in the test with azithromycin; 0.06 µg/mL in the test with benzylpenicillin; 0.008 µg/mL in the test with ceftriaxone; 2 µg/mL with tetracycline; 16 µg/mL in the test with spectinomycin.

As for “Neisseria gonorrhoeae isolate 283 (blaTEM plasmid: no, gyrA: wild type, mtrR promoter: wild type, parC: wild type, penA: ins345Asp, ponA: wild type, porB: wild type, rpsJ: Met57, tetM plasmid: no)”, the MIC was 0.12 µg/mL with azithromycin; at most 0.015 µg/mL in the test with benzylpenicillin; at most 0.002 µg/mL in the test with ceftriaxone; 1 µg/mL with tetracycline; 16 µg/mL with spectinomycin.

Consider “Neisseria gonorrhoeae isolate 25 (blaTEM plasmid: no, gyrA: wild type, mtrR promoter: wild type, parC: wild type, penA: wild type, ponA: wild type, porB: wild type, rpsJ: wild type, tetM plasmid: no)”, for which the MIC was 0.03 µg/mL with azithromycin; at most 0.015 µg/mL in the test with benzylpenicillin; at most 0.002 µg/mL in the test with ceftriaxone; 0.25 µg/mL with tetracycline; 32 µg/mL in the test with spectinomycin.

Consider “Neisseria gonorrhoeae isolate 80 (blaTEM plasmid: no, gyrA: wild type, mtrR promoter: wild type, parC: wild type, penA: ins345Asp, ponA: wild type, porB: wild type, rpsJ: wild type, tetM plasmid: no)”, for which the MIC with azithromycin was 0.12 µg/mL; in the test with benzylpenicillin it was 0.12 µg/mL; with ceftriaxone it was 0.008 µg/mL; in the test with tetracycline it was 0.12 µg/mL; with spectinomycin, 16 µg/mL.

“Neisseria gonorrhoeae isolate 108 (blaTEM plasmid: no, gyrA: wild type, mtrR promoter: wild type, parC: wild type, penA: ins345Asp, ponA: wild type, porB: wild type, rpsJ: Met57, tetM plasmid: no)”: the MIC with azithromycin is 0.015 µg/mL; in the test with benzylpenicillin it was 0.25 µg/mL; in the test with ceftriaxone, at most 0.002 µg/mL; in the test with tetracycline it was 0.5 µg/mL; in the test with spectinomycin, 4 µg/mL.

As for “Neisseria gonorrhoeae isolate 4 (blaTEM plasmid: no, gyrA: wild type, mtrR promoter: wild type, parC: wild type, penA: ins345Asp, ponA: Pro421, porB: wild type, rpsJ: Met57, tetM plasmid: no)”, the MIC with azithromycin was 0.06 µg/mL; in the test with benzylpenicillin, 0.03 µg/mL; in the test with ceftriaxone, at most 0.002 µg/mL; with tetracycline, 0.12 µg/mL; with spectinomycin it was 4 µg/mL.

“Neisseria gonorrhoeae isolate 501 (blaTEM plasmid: no, gyrA: Thr91, Gly95, mtrR promoter: wild type, parC: wild type, penA: ins345Asp, ponA: wild type, porB: Gly120, Ser121, rpsJ: Met57, tetM plasmid: no)”: the MIC in the test with azithromycin was 0.06 µg/mL; with benzylpenicillin, 0.25 µg/mL; in the test with ceftriaxone, at most 0.002 µg/mL; in the test with tetracycline, 0.5 µg/mL; with spectinomycin it was 16 µg/mL.

As for “Neisseria gonorrhoeae isolate 210 (blaTEM plasmid: no, gyrA: Phe91, Gly95, mtrR promoter: -35delA, parC: Arg87, Glu91, penA: ins345Asp, ponA: Pro421, porB: wild type, rpsJ: Met57, tetM plasmid: no)”, the MIC with azithromycin is 0.25 µg/mL; with benzylpenicillin it was 0.5 µg/mL; with ceftriaxone it was 0.008 µg/mL; with tetracycline it was 2 µg/mL; with spectinomycin, 16 µg/mL.

Regarding “Neisseria gonorrhoeae isolate 46 (blaTEM plasmid: no, gyrA: Phe91, Asn95, mtrR promoter: -35delA, parC: wild type, penA: ins345Asp, ponA: Pro421, porB: Lys 120, Gly121, rpsJ: Met57, tetM plasmid: no)”, the MIC was found to be 0.25 µg/mL in the test with azithromycin; 0.5 µg/mL with benzylpenicillin; 0.015 µg/mL with ceftriaxone; 4 µg/mL in the test with tetracycline; 8 µg/mL in the test with spectinomycin.

The record behind these values is the supplement of paper PMC6657886.
